Out of some 48,000 compounds screened, about 1,200 (2.5%) were called active. About 2% were inconclusive and are not listed.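 Rule for the calls: active = activation of at least 60% and not above a set upper limit (about 1 call in 100 departs from these limits); inconclusive = activation of 40% to 60%, or above that upper limit; inactive = activation under 40%.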 Some of the results follow.
These compounds were tested against Probable G-protein coupled receptor 32 (Homo sapiens) (UniProt O75388) (assay: qHTS for Agonists of Human Resolvin D1 Receptor DRV1). Details: CHO-K1 GPR32 beta-arrestin PathHunter luminescence, 90 min; at 76.9 µM; active compounds read high; zero percent set by DMSO-only wells.
How it was run: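 Agonism was scored by beta-Gal fragment complementation (chemiluminescent read, 1 h detection at ambient temperature) reporting beta-arrestin binding to GPR32 in engineered CHO-K1 cells. Compound treatment lasted 90 min at 37 C, normalized to a DMSO basal control.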
Note: 0% is about no effect.

UniProt O75388, sequence (O75388 whole entry, looked up, the tested form may be a part): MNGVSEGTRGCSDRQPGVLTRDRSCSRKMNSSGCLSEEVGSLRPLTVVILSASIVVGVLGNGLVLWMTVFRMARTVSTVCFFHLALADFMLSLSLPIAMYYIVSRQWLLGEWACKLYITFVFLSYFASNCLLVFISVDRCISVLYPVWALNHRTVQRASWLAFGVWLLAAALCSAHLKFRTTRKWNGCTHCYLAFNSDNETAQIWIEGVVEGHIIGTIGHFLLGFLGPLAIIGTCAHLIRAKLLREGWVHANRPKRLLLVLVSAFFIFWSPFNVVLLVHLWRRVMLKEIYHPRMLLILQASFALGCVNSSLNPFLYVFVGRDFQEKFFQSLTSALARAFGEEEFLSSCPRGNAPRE

activation, inactive:
O=C(NCCc1ccc(Cl)cc1)c1cnc2sc(N3CCOCC3)nn2c1=O 16.5%
COc1cc(OC)c(Nc2nc3ccccc3c3nncn23)cc1Cl 7.34%
CN(C)c1ccc(CN(Cc2ccco2)C(=O)c2ccc(C(C)(C)C)cc2)cc1 -18%
Cc1ccc(-c2nc3nc(C)cc(N4CCN(c5cccc(C)c5C)CC4)n3n2)cc1 -5.35%
CCOc1ccccc1NC(=O)NCc1ccc2c(c1)CCN2C(=O)c1ccccc1 -21.6%
COc1ccc(/C=C\c2onc(C)c2S(=O)(=O)N2CCC(C(=O)Nc3ccc(F)cc3F)CC2)cc1 -19.8%
CCOC(=O)c1c(C)oc2nc(C)nc(Nc3ccc(C)c(Cl)c3)c12 1.45%
CCOC(=O)c1c(NC(=O)c2cc(C(C)C)on2)sc(C(C)=O)c1C 1.41%
CCc1ccc(CNC(=O)c2cc(=O)[nH]c3ccc(S(=O)(=O)N4CCCCC4)cc23)cc1 -3.03%
COc1ccc(CC(=O)Nc2ccc3nc(Nc4ccc(OC)cc4)cc(C)c3c2)cc1 12.1%
CCCOc1ccc(C(=O)Nc2ccc3oc(-c4ccncc4)nc3c2)cc1 -3.26%
O=C(Nc1nnc(N2CCCCCC2)s1)Nc1cc(F)ccc1F 1.57%
CCCCN(CC)CCCNC(=O)CS(=O)(=O)Cc1nc(-c2ccc(C)cc2)oc1C 3.2%
CCOc1ccc(CCNC(=O)C2CCN(C(=O)N3CC(CC)Oc4ccccc43)CC2)cc1 (stereo not drawn) -19.4%
Cc1ccccc1-c1noc(-c2ccc(N3CCCCC3)c([N+](=O)[O-])c2)n1 -6.01%
COc1cc(NC(=O)CSc2nnc(C)n3c2cc2oc(C)cc23)cc(OC)c1 -7.32%
COc1ccc(NC(c2nnc(-c3ccccc3)o2)c2ccccc2F)cc1Cl (stereo not drawn) -7.53%
CCOCCCN(Cc1ccco1)S(=O)(=O)c1cc2c(cc1Cl)NC(=O)CO2 -14.5%
Cc1c2cnn(CC(=O)NCc3ccc(F)cc3)c(=O)c2c(C)n1Cc1cccc(Cl)c1 -4.03%
O=C(NCc1ccc(Cl)cc1)c1cnc2sc(N3CCOCC3)nn2c1=O 25.5%
COCCCNC(=O)c1c(NC(=O)Cc2coc3c(C)c(C)ccc23)sc2c1CCCC2 -8.53%
COc1cccc(CNC(=O)CCS(=O)(=O)c2ccc3c(c2)oc(=O)n3C)c1 -2.01%
Cn1nnc2c(N3CCN(c4cccc(Cl)c4)CC3)ncnc21 -4.92%
COCCN(Cc1cccs1)S(=O)(=O)c1cc(-c2cc(C)no2)ccc1C -12.1%
CCC(Sc1nnc2c(n1)[nH]c1ccccc12)C(=O)Nc1nnc(C(C)C)s1 (stereo not drawn) -9.22%
CCCCOC(=O)c1c(N)n(-c2ccc(OC)cc2OC)c2nc3ccccc3nc12 -17%
Cc1ccc(CCNS(=O)(=O)c2cc(-c3cc(C)no3)ccc2C)cc1 -10.3%
O=Nc1c(-c2c(O)[nH]c3ccccc23)[nH]c2ccccc12 -33.8%
Cc1ccc(C(=O)c2cc(O)c(O)c([N+](=O)[O-])c2)cc1 -62.4%
Cc1cccc(-n2ncc(C(=O)N3CCOCC3)c2C2CCN(C(=O)OC(C)(C)C)CC2)c1 -4.61%
CC(C)N(C(=O)Cn1cc(SCC(=O)Nc2ccccc2F)c2ccccc21)C(C)C -6.34%
CCOc1ccc(C(=O)NCc2ccc3c(c2)CCN3C(=O)c2ccc(Cl)cc2)cc1 -9.55%
O=C(NC1CC(=O)N(c2cccc(F)c2)C1)c1cccs1 (stereo not drawn) 0.106%
Cc1ccccc1Nc1cc(C(=O)NCCCN2CCN(c3cccc(Cl)c3)CC2)c2ccccc2n1 -3.16%
Cc1c(Cl)cccc1NC(=O)N1CCN(C(=O)c2nsc3ccccc23)CC1 -9.37%
CCc1ccc(OCC(=O)NC(Cc2c[nH]c3ccccc23)C(=O)O)cc1 (stereo not drawn) 6.86%
CC(C)C(=O)Nc1ccc2nc(SCC(=O)N3CCCC3)sc2c1 -7.35%
CCCN(C(=O)c1cc2c(=O)oc3ccccc3c2s1)c1ccc(CC)cc1 5.88%
Cc1c(CCC(=O)NCCc2ccccc2)c(=O)oc2c(C)c(O)ccc12 0.118%
CCc1ccc(NC(=O)c2ccc(CN3CC(=O)N4CCCCC4C3=O)cc2)cc1 (stereo not drawn) -17.8%
Cc1ccc(C(C)C)c(OCCSc2nc(-c3ccccc3F)nc3cc(=O)[nH]n23)c1 -31.6%
COc1cccc(C(=O)NCc2ccc3c(c2)CCN3C(=O)c2ccncc2)c1 -6.92%
COc1ccc(-n2c3c(c(=O)[nH]c2=O)C(NC(=O)c2ccccc2Cl)(C(F)(F)F)C(=O)N3)cc1 (stereo not drawn) -8.07%
COc1cccc(CNC(=O)Cn2c(=O)ccc3cc(S(=O)(=O)N4CCC(C)CC4)ccc32)c1 9.67%
COc1ccc(-c2[nH]c(-c3cccc(OC)c3)nc2SCC(=O)Nc2ccc3c(c2)OCO3)cc1 -32.4%
COc1ccc(CNc2nc(SCc3ccc(Cl)cc3)nc3ccccc23)cc1 -12.5%
O=C(Nc1ccc(C(=O)N2CCN(c3cccc(Cl)c3)CC2)cc1)c1nsc2ccccc12 -9.86%
CCCCCN1C(C(=O)c2ccccc2)=C(NC(=O)c2ccc(OC)cc2)c2ccccc2S1(=O)=O 24%
COc1ccc(-c2c3c(=O)n(C)c(=O)n(C)c3c3n2-c2ccccc2NC3c2ccc(OC)cc2)cc1 (stereo not drawn) -11%
Cc1ccc(NC(=O)c2cc(S(=O)(=O)N(C)C3CCCCC3)ccc2F)cc1C -12.7%
COc1ccccc1C(=O)Oc1c(Sc2ccccc2)c(C)nn1C(C)(C)C -8.25%
CCN(c1cccc(C)c1)S(=O)(=O)c1ccc(N2CCCCS2(=O)=O)cc1 26.5%
COc1ccc(NC(=O)c2ccc(-c3nc(CSc4ccc(C)cc4)c(C)o3)cc2)cc1Cl -4.2%
